Some targets named below: MAVS (1–467) (UniProt Q7Z434); M11 MAVS (1–90/441–540) (UniProt Q7Z434); MAVS (361–540) (UniProt Q7Z434); MAVS (1–510) (UniProt Q7Z434).
What all share (assay): co-IP; HEK293 co-transfected with GP73 plasmid and Flag-tagged (or indicated) plasmids for 24 h; lysis in 50 mM Tris-HCl, 150 mM NaCl, 1% Triton X-100, 1 mM EDTA, 10% glycerol, pH 7.4; immunoprecipitated with anti-Flag (or IgG), washed with 300 mM NaCl buffer, WB; Fig 3B, 3C, 4C-F, S4B (for Fig 4C-F the antibodies are only 'indicated')
A further experiment has as its target T1, Flag-TBK1 (UniProt Q9UHD2).
T1 sequence: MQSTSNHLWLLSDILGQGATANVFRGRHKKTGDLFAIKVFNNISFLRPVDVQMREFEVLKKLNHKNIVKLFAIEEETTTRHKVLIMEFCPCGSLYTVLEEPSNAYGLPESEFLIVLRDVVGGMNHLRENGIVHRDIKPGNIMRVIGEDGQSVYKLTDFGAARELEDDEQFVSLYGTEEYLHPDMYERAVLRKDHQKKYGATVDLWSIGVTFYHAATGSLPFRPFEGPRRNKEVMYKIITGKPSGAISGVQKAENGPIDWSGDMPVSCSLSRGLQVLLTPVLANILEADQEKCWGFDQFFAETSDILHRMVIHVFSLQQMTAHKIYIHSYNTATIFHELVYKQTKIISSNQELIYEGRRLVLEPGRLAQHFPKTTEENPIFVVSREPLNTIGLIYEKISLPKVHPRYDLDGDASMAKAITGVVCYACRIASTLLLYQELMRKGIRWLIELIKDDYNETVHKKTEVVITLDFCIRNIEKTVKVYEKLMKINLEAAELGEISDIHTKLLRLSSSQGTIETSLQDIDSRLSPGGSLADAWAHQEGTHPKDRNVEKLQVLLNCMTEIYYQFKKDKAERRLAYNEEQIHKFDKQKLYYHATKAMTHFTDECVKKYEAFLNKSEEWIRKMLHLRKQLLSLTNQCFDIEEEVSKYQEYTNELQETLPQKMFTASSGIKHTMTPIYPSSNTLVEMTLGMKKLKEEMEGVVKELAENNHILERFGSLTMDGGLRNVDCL

The chains behind the UniProt entries cited, without tags or fusion partners. Where a name states a change or a piece, a line headed by the entry shows the natural chain unless it says otherwise. A line that says so, or that is headed by a name, gives the form on record, which may keep a tag or linker. Residues count along the entry.
UniProt Q7Z434: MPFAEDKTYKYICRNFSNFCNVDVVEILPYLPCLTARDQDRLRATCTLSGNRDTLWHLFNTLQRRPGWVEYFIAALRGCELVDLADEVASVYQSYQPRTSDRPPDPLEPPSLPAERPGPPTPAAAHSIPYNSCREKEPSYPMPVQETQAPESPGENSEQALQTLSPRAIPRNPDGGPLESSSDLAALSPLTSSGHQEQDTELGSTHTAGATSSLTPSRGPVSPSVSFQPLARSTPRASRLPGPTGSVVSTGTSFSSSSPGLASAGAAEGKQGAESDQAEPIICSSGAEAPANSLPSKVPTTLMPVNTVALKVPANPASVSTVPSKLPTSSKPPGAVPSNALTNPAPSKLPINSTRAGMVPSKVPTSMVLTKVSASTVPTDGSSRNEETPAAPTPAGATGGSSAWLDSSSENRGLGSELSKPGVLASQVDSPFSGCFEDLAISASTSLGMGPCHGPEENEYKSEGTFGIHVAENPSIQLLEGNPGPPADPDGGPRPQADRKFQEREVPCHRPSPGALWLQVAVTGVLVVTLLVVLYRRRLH
MAVS (1–510): residues 1-510 of Q7Z434
MAVS (1–467): residues 1-467 of Q7Z434
MAVS (361–540): residues 361-540 of Q7Z434
M11 MAVS (1–90/441–540) (Q7Z434, form named): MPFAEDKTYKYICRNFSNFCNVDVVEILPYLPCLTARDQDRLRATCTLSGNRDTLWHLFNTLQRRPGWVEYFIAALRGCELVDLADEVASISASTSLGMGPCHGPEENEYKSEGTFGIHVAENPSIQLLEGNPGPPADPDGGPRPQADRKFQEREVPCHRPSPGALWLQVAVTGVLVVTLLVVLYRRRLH

The target in experiment [1] is Flag-MAVS (mitochondrial antiviral signaling protein), full length (UniProt Q7Z434).

These are yes or no findings as the source states them, for the method shown. In cells and extracts the contact can be indirect. Some entries that bind do so weakly or less than the wild type. Where a sequence is shown, tags or fusion partners need not be part of it.

B1: HA-GP73 (Golgi protein 73) (protein, UniProt Q8NBJ4 1-401)
chain: MMGLGNGRRSMKSPPLVLAALVACIIVLGFNYWIASSRSVDLQTRIMELEGRVRRAAAERGAVELKKNEFQGELEKQREQLDKIQSSHNFQLESVNKLYQDEKAVLVNNITTGERLIRVLQDQLKTLQRNYGRLQQDVLQFQKNQTNLERKFSYDLSQCINQMKEVKEQCEERIEEVTKKGNEAVASRDLSENNDQRQQLQALSEPQPRLQAAGLPHTEVPQGKGNVLGNSKSQTPAPSSEVVLDSKRQVEKEETNEIQVVNEEPQRDRLPQEPGREQVVEDRPVGGRGFGGAGELGQTPQVQAALSVSQENPEMEGPERDQLVIPDGQEEEQEAAGEGRNQQKLRGEDDYNMDENEAESETDKQAALAGNDRNIDVFNVEDQKRDTINLLDQREKRNHTL
Regarding B1, the binding entry with MAVS (1–467) is given as “no binding”; in the experiment with M11 MAVS (1–90/441–540), “binds”; with Flag-TBK1, “no binding”; with MAVS (361–540), “no binding”; in experiment [1], “binds”; with MAVS (1–510) it was “no binding”.
